B1: LINE1-mini (parent)
chain: GGCAGAGCUCAACACAGCGUGGCAAAGUGGCUGUGGCUAGACUGCC

Experimental findings from the RNAGym collection of RNA variant scans (doi:10.7554/elife.90254) are described below.

The source gives no read counts; variants with many changes may rest on few reads.

Variants of B1 are the subject of the data set. Description: self-cleavage, relative activity (ratio to wild type); higher = more cleavage; in vitro, sequencing; the parent is a self-cleaving ribozyme.
As to C13A G17A A39U U43G G44C, the self-cleavage amounted to 0.08.
The figure for G2U G7C G21U U38A C42A is 0.04; for C10U U34A U43C it is 0.02; for G17U C31A G35C C46A it is 0.09.
The figure for G21C G29A U34A G36A is 0.05; for C3A G7U C45A it is 0.3; for A12C A25U U28G it is 0.02.
The figure for C15U C23G C37U is 0.08; for A4G C15U C18G it is 0.07.
For the variant C3A G27U G36A, the self-cleavage came to 0.63.
The figure for G2A C42G U43G is 0.1; for G2C A4U C23U G35C it is 0.04; for G19U U20G C46A it is 0.82.
With C10A C13A C15A G19A U38G C42U the figure was 0.01; with C3U C10A U20C C42A, 0.
The figure for A12U C18G U20G G35C is 0.02.
Regarding U9G C18A G29C C31G C37A A41U, the self-cleavage came out at 0.03.
Turning to G2C C3U G35C, the self-cleavage came out at 0.2.
With A26U G35U A41U C46U the figure was 0.03; with G19A C45A C46G, 0.12; with A24U U28A C31U, 1.24.
The figure for G2U C18U A24G is 0; for C3G C8G G27C G35A C37G it is 0.2; for A4U G5U U9G G17U U20A U28G U32A it is 0.02.
With C15A A16C A26U C42A the figure was 0.04.
Turning to A16U A25C G30A A41U, the self-cleavage amounted to 0.04.
The figure for A6G C8U C13G U34C C37G is 0.09.
With A16G C18U U38A C46A the figure was 0.22.
The figure for A6C G7C A25U A39U is 0.11.
Turning to C13A C15A G17C G44U, the self-cleavage was determined as 0.02.
The figure for G29U A39C C45U is 0.05.
The figure for A16C A24U C37U is 0.07; for G5C A14U G21U it is 0.05.
With G7C A14C C23G A25U the figure was 0.02; with C18U G36U G40U A41G, 0.14.
As to G19A A24G A25U, the self-cleavage stood at 1.88.
With C15U A24G C37U the figure was 0.04; with G5C C8U A24G G36C, 0.05.
With G17C G22C A41U C42U G44A the figure was 0.02.
The figure for G21C G22U G35C is 0.2; for A11U G17A G19A A26C it is 0.08; for G7C A12C G21U C37A it is 0.01.
In the case of C13A A16C G17U C23G, the self-cleavage is 0.01.
The figure for A14U G27U C46A is 0.88; for C10U G21U G33U G35U U38C C46G it is 0.01.
For C3A C8G A25C U34A, the self-cleavage turned out to be 0.02.
With C3A G5A G19C, the self-cleavage came to 0.05.
The figure for G1C G2A G19C C31G U43A is 0.07; for C3U C8U A14C C23U it is 0.12; for C18U U32C G36C it is 0.07.
The figure for C8A C10U C23G is 0.04; for C10A C23A A25C U32G C46A it is 0; for G5U A14U G19A it is 0.26.
Take G1U G19C A26G U38G: the self-cleavage was determined as 0.
For the variant G2C C10U A14U, the self-cleavage is 0.02.
With C10A U20A U28C the figure was 0.15; with C3U G22A G33A, 0.06.
With G17A G19A A24C the figure was 0.08; with A16U C23A G29U U43A, 0.16.
With A24U A26U U34C the figure was 0.07; with A11C G33C U38A, 0.03; with A4C C10G U20C, 0.02.
As to A12C A16G G21U A39C, the self-cleavage was determined as 0.01.
Consider G1A A16G C46A, for which the self-cleavage was 0.15.
Turning to G1U A6C G17U U28A, the self-cleavage came out at 0.02.
With C15U G29A G30A the figure was 0.3; with C10G G35C U43A, 0.02.
G7U G21A C23A: the self-cleavage is 0.03.
With G27A C31U A41U the figure was 0.28.
In the case of G2A G17U U28G, the self-cleavage is 0.15.
With G2C U9G A14U the figure was 0.05; with G2U A16G C18G C45U, 0.02; with U9G A24C G33C C37A, 0.01.
C3G G19A U28G G40U: the self-cleavage was 0.04.
Turning to A4G G7A G29A, the self-cleavage was found to be 0.36.
U9A A24U C42G U43G: the self-cleavage is 0.3.
The figure for G2U C18A U32A is 0.01; for C10A A11C G19A U20A A24U it is 0.01.
Take A14U U20A G40U U43A: the self-cleavage is 0.03.
The figure for A6C U28G U32C G36A A41G C42U is 0; for G7C G27U G40U it is 0.04; for A25U G29A C37G A41U it is 0.02.
The figure for G1A C13A A25G is 0.06.
A4U C23G G33U G36U: the self-cleavage is 0.09.
In the case of C10G G29C C45U, the self-cleavage was found to be 1.46.
With G1C G5C G7A A16U G30A G33U G36C the figure was 0.05.
With U34G U38C U43G the figure was 0.04.
The figure for A26C G33A A39G is 0; for G22A A26G C31A G35U C37U it is 0.01.
Take C3A A6G A12G G29C: the self-cleavage was 0.03.
The figure for G5A A11G U32A is 0.03; for C10U G21A A25C it is 0.44.
With U20G G22U U34G G40A the figure was 0.03.
For A4C C8G C23G C37G C46G, the self-cleavage was found to be 0.
For C3A A14G C31G U32G, the self-cleavage was 0.04.
With G2C C8G G44U the figure was 0.03; with G1U G2U C31U, 0.02.
With A25G G29U G40A U43A the figure was 0.04; with G22A U28A G35U, 0.03; with G7C C8A G19C G21A G44C, 0.03.
The figure for A12G G36A G44C C45U is 0.02; for G5C C13A A16C A24G it is 0.02.
On to G1U G40U C42A, for which the self-cleavage was 0.08.
The figure for C10G A12G C15A G36C is 0.02; for C18U G22C C45A it is 0.22; for G22C U28G U32A it is 0.07.
With A6G U20G G44U, the self-cleavage stood at 0.05.
The figure for G2C C18U U20A is 0.09; for A4C G5C C8G A24C it is 0.09.
With C8U A24U C42U G44U the figure was 0.22; with A14U A16C A26G C31G, 0.06; with G29C G30U U32A C37G, 0.05.
As for G2U G5U C23U G30U, the self-cleavage came to 0.07.
The figure for C8A A12G G29A G36A is 0.05; for G27U G36C U38A C46A it is 0.04.
The figure for C10A C45U C46G is 0.01; for A11C G21U U32G U34A it is 0.06; for G1U G7U G17C C31A it is 0.01.
The figure for A4U C10U C15A G35U is 0.02; for A12U G22U G29C it is 0.05.
With G5U G33A U34G G35C C45A, the self-cleavage is 0.01.
With A16G G17C G27A G30C C42G the figure was 0.05.
G1A G5U U9C C10A G44C: the self-cleavage was 0.03.
Take A4G C31G A39C: the self-cleavage worked out at 0.07.
The figure for U32C G33U G36A is 0.01.
The figure for U9C G27A G35U G40A is 0.03; for C3U G19A U28G G30A C31G G35C G36A C42A U43A it is 0.03; for C18U C23G U34A it is 0.03.
The figure for U20G C23A A26U U28C G29U U34A C42U is 0.02; for G2U G35A C46A it is 0.01.
As to A4C G35A A39G, the self-cleavage was determined as 0.
The figure for G1U A12G A16U is 0.02; for A11G A26C G29U it is 0.01; for U20A A26C G30C it is 0.08.
The figure for U9G C10G C15U C18A C31U G35C is 0.01; for G1C G5U G36U it is 0; for G2C G5A C13G A25C U34A it is 0.02.
Consider G1U G5A C8G C18U C23A G29U G35U C45U, for which the self-cleavage is 0.03.
Consider A4U A6U U20A C42U C45U, for which the self-cleavage was determined as 0.03.
Regarding A6C C8A G36C, the self-cleavage stood at 0.06.
With C18U G21U G27U the figure was 0.72.
The figure for A11U C23U A24G C31U is 0.06; for C13A A26G G35A C46G it is 0.03.
The figure for U20A A26G C31U is 0.03; for G5A C13G G22A A25U G44C C45A it is 0.08; for G1A C3U G7A C31U it is 1.2.
With C23A G29A G35C C45U, the self-cleavage stood at 0.24.
With C18U A25G G35U the figure was 0.03; with G7U A14G G17A G27U A41C, 0.03.
With G7A G35U A41C the figure was 0.05; with C13G U28A C37G, 0.02; with C18U A25G C46U, 0.19.
The figure for C3G A24U G29U is 0.34; for U9A A25C G29A G35C C37A C45G it is 0.19.
As for U9G C13A U34G U38C G40C, the self-cleavage worked out at 0.03.
In the case of G5A U20G C37G, the self-cleavage was found to be 0.07.
On to G2C G5U G19C G33U C46A, for which the self-cleavage came out at 0.01.
C13A G33C C42U: the self-cleavage stood at 0.24.
For G5A C31G G40C, the self-cleavage amounted to 0.03.
A16G G19U G40A: the self-cleavage came to 0.05.
The figure for C10A A24U A39G is 0.03; for A16G G22A G36C it is 0.
The figure for G7A A12U C13A G17U C23A U34C C37A is 0.12; for G5U A12C G22A U28A G40A it is 0.03; for G1U G2A G7A U20G it is 0.27.
With C3U A6C A11C C18G U20A U34C C37U the figure was 0.01; with G5A G33U G35U, 0.05.
